# Experimental data reported in PubChem BioAssay AID1671194 (National Center for Advancing Translational Sciences (NCATS), 2021).
# Where “and” joins values, the source holds several entries; their conditions need not be identical. Equal values may be shown once. The whole screen tested about 140,000 compounds, of which about 240 (0.17%) were called active. This list was built around the results that the source calls inconclusive (neither active nor inactive); the mix of calls is not that of the screen. Calls come from the whole dose curve; as a rule, active = well fitted inhibition curve with a large enough effect; inconclusive = small, poorly fitted or top-dose-only effect; inactive = no such curve, though single readings can be large or run the other way. Where the call is inconclusive, the potency comes from a doubtful curve fit.
# Assay: Primary qHTS assay for inhibitors of alpha-synuclein gene (SNCA) expression; note: nearly all actives have a fitted effect of over 45% in size
# Conditions: HEK-293 SNCA-luciferase knock-in, luminescence, 24 h; series mostly up to 57.2 µM
# Potency is the fitted concentration of half-maximal effect; tags give direction and shape of the fitted curve.
row,SMILES,Potency
1,CN1Cc2ccccc2-n2ccnc2C12CCN(C(=O)c1cccc(Cl)c1)CC2,inactive
2,COc1cccc([C@@H]2CCN(Cc3[nH]c4ccccc4c3C)C[C@H]2O)c1,inactive
3,COc1ccc(Br)cc1C1SCC(=O)Nc2c1c(C)nn2-c1ccccc1C (centres undefined),"inconclusive: 25.1 µM [inhibitor, partial curve, poor fit]"
4,CCCC1=Nc2cc(C(=O)NCCCN(CC)CC)ccc2Sc2ccccc21,"inconclusive: 39.8 µM [inhibitor, single point]"
5,COC(=O)c1sccc1NC(=O)N1[C@H]2CC[C@@H]1c1cncnc1C2,"inconclusive: 4.47 µM [inhibitor, single point]"
6,CCOC(=O)[C@H]1CN(C(=O)/C=C/c2ccccc2)[C@]2(C)C(=O)N(CC3CC3)c3ccccc3[C@H]12,inactive
7,COc1cc2c(cc1OCC1CC1)NC(=O)C21CCN(c2nccs2)CC1,"inconclusive: 25.1 µM [inhibitor, partial curve]"
8,COc1cc2c(cc1CCc1ccccc1)N([S+](=O)([O-])c1ccc3c(c1)CCO3)CC21CCN(C(C)=O)CC1,"inconclusive: 35.5 µM [inhibitor, single point]"
9,NCCCP(=O)(O)O,"inconclusive: 3.16 µM [inhibitor, partial curve, poor fit]"
10,CCC(CC)c1cc([C@H]2CN3CC[C@H]2C[C@@H]3CNC(=O)c2ccco2)nc(-c2ccncc2)n1,inactive
11,Cc1noc(C)c1S(=O)(=O)N1C[C@@H]2CCN(C)C[C@]2(C(=O)O)C1,inactive
12,COCCNC(=O)[C@H]1CN2CCC1C[C@@H]2Cn1cc(CCO)nn1 (some centres undefined),"inconclusive: 10 µM [inhibitor, partial curve, poor fit]"
13,Cn1nc(-c2ccc3ccccc3c2)cc1[C@H]1CN2CC[C@H]1C[C@@H]2CNC(=O)NCc1ccccc1,"inconclusive: 25.1 µM [inhibitor, partial curve, poor fit]"
14,Cn1nc(-c2ccc(F)cc2)cc1[C@H]1CN2CC[C@H]1C[C@@H]2CNC(=O)c1cccs1,"inconclusive: 44.7 µM [inhibitor, partial curve, poor fit]"
15,COc1ccc(-c2cc([C@H]3CN4CC[C@H]3C[C@@H]4CN)nc(C)n2)cc1OC,inactive
16,Cc1ccccc1-n1c(/C=C/c2c(C)[nH]c3ccccc23)nc2ccccc2c1=O,"inconclusive: 28.2 µM [inhibitor, single point]"
17,NC1=NC(=O)N2CC12 (centres undefined),active: 9.61 µM
18,Cc1ccc(Cn2cccc(C(=O)Nc3cc(C)on3)c2=O)cc1,"inconclusive: 35.5 µM [inhibitor, single point]"
19,Cc1ccc(C(=O)N2CCC3(CC2)c2nccn2-c2ccccc2CN3CC(C)C)cc1F,"inconclusive: 39.8 µM [inhibitor, partial curve, poor fit]"
20,O=C1CC2CCN(Cc3ccncc3)CC2CCN1 (centres undefined),"inconclusive: 12.6 µM [inhibitor, single point]"

row,SMILES,Potency
1,C=C(C)[C@H]1Cc2c(ccc3c2O[C@@H]2COc4cc(OC)c(OC)cc4[C@@H]2C3=O)O1,"inconclusive: 7.64 µM [inhibitor, partial curve, poor fit]"
2,CCOC(=O)[C@H]1CN(S(=O)(=O)c2ccccc2)[C@]2(C)C(=O)N(CC(=O)N(C)C)c3ccccc3[C@H]12,inactive
3,Cc1nc(-c2cccs2)cc([C@H]2CN3CC[C@H]2C[C@@H]3CNC(=O)Nc2cccc(C(F)(F)F)c2)n1,"inconclusive: 39.8 µM [inhibitor, single point]"
4,Fc1ccc(C(OCCN2CCN(CCCc3ccccc3)CC2)c2ccc(F)cc2)cc1,"inconclusive: 42.9 µM [inhibitor, single point] and inconclusive: 17.8 µM [inhibitor, partial curve, poor fit]"
5,COc1cccc(CC(=O)N2CC3(CCN(C(C)=O)CC3)c3cc(OC)c(CCc4ccccc4)cc32)c1,"inconclusive: 22.4 µM [inhibitor, single point]"
6,O=C(Cc1ccc(F)cc1)N1CCN(Cc2ccccc2-c2cccnc2)CC1,inactive
7,COc1ccc(C(=O)N2CC3(CCN(C)CC3)c3cc(OC)c(OCc4ccccc4)cc32)cn1,"inconclusive: 8.91 µM [inhibitor, single point]"
8,COc1cc2c(cc1CCc1ccccc1)N(C(=O)COc1ccccc1)CC21CCN(C(C)=O)CC1,inactive
9,COc1cc2c(cc1OCc1ccccc1)N(C(=O)c1cc3ccccc3n1C)CC21CCN(C)CC1,"inconclusive: 28.2 µM [inhibitor, partial curve, poor fit]"
10,O=C(c1ccccc1)N1C[C@@H]2C[C@H](C1)c1ccc(-c3ccc(Cl)cc3)c(=O)n1C2,inactive
11,COc1cc2c(cc1Oc1ccccc1)NC(=O)C21CCN(C(=O)c2ccccc2)CC1,"inconclusive: 31.6 µM [inhibitor, single point]"
12,COc1cc2c(cc1OC1CCCC1)NC(=O)C21CCN(c2nc(C)cc(C)n2)CC1,"inconclusive: 31.6 µM [inhibitor, partial curve, poor fit]"
13,O=[S+]([O-])(C1CC1)N1C2CCC1CN(Cc1cccnc1)C2,"inconclusive: 0.794 µM [inhibitor, full curve, poor fit]"
14,NCCc1ccc(O)cc1,"inconclusive: 8.91 µM [inhibitor, single point]"
15,CSc1ccc(-c2ccc(=O)n3c2[C@@H]2C[C@@H](CN(S(=O)(=O)c4cccs4)C2)C3)cc1,inactive
16,Cc1ccccc1CN1C(=O)C(C)N=C(c2ccccc2)c2ccccc21 (centres undefined),"inconclusive: 35.5 µM [inhibitor, partial curve, poor fit]"
17,C=CCN(C)C(=O)[C@H]1CN2CCC1C[C@@H]2Cn1cc(-c2ccc(C(C)(C)C)cc2)nn1 (some centres undefined),"inconclusive: 10 µM [inhibitor, single point]"
18,COc1cc2c(cc1Oc1ccccc1)NC(=O)C21CCN(C(=O)c2cccnc2)CC1,"inconclusive: 56.2 µM [inhibitor, single point]"
19,CCc1cnc(N2CCC3(CC2)C(=O)Nc2cc(Oc4ccccc4)c(OC)cc23)nc1,"inconclusive: 56.2 µM [inhibitor, single point]"
